Experimental data: patent publication US20220339143A1, “TAK-925 FOR USE IN TREATING NARCOLEPSY” (Takeda Pharmaceutical Company Limited, priority 2019, published 2022)
This continues a long series; more values of the same kind are listed elsewhere.

Assay: Single dose PK in healthy subjects (Cohorts 1, 2, S1 and S2), plasma
Type: in vivo, human
Protocol: This study investigates (i) the safety and tolerability of Compound A (methyl (2R,3S)-3-((methylsulfonyl)amino)-2-(((cis-4-phenylcyclohexyl)oxy)methyl)piperidine-1-carboxylate) when a single dose given as a 9 hour continuous IV infusion is administered to healthy adults, healthy elderly subjects and patients with narcolepsy type 1 (NT1); (ii) the pharmacokinetics of Compound A when a single dose given as a 9 hour continuous IV infusion is administered to healthy adults, healthy elderly subjects and patients with narcolepsy type 1; and (iii) the pharmacodynamics (PD) effects of Compound A, primarily by evaluation of the sleep latency on MWT when a single dose given as a 9 hour continuous IV infusion is administered to patients with narcolepsy type 1.
Pharmacokinetics: Concentrations of Compound A in plasma, and CSF, and pharmacokinetics parameters.
On average, the time to reach the plateau appeared to be approximately 3 to 4 hours after the start of infusion. […] After switching off the IV infusion, Compound A plasma concentrations declined rapidly and in a biphasic manner with a mean terminal disposition phase t1/2z ranging approximately from 3.4 to 5.1 hours across all doses. […] Table 5 provides a summary of plasma concentrations of Compound A after a single IV infusion in healthy subjects. Table 6 provides a summary of pharmacokinetic parameters of Compound A after a single IV infusion in healthy subjects.

[1] = 180 mg single IV infusion, 1 hr After End of Infusion
[2] = 180 mg single IV infusion, 1.5 hr After End of Infusions
[3] = 180 mg single IV infusion, 2 hr After End of Infusions
[4] = 180 mg single IV infusion, 3 hr After End of Infusions
[5] = 180 mg single IV infusion, 4 hr After End of Infusions
[6] = 180 mg single IV infusion, 6 hr After End of Infusions
[7] = 180 mg single IV infusion, 10 hr After End of Infusions
[8] = 180 mg single IV infusion, 15 hr After End of Infusions
[9] = 180 mg, 0.17 hr After End of Infusion
[10] = 240 mg single IV infusion, 0.17 hr After End of Infusion
[11] = 240 mg single IV infusion, 0.33 hr After End of Infusion
[12] = 240 mg single IV infusion, 0.5 hr After End of Infusion
[13] = 240 mg single IV infusion, 0.75 hr After End of Infusion
[14] = 240 mg single IV infusion, 1 hr After End of Infusion
[15] = 240 mg single IV infusion, 1.5 hr After End of Infusions
[16] = 240 mg single IV infusion, 2 hr After End of Infusions
[17] = 240 mg single IV infusion, 3 hr After End of Infusions
[18] = 240 mg single IV infusion, 4 hr After End of Infusions
[19] = 240 mg single IV infusion, 6 hr After End of Infusions
[20] = 240 mg single IV infusion, 10 hr After End of Infusions
[21] = 240 mg single IV infusion, 15 hr After End of Infusions
[22] = 240 mg single IV infusion, Predose
[23] = 240 mg, 0.17 hr After End of Infusion

COC(=O)N1CCC[C@H](NS(C)(=O)=O)[C@@H]1CO[C@H]1CC[C@@H](c2ccccc2)CC1 [Compound A, methyl (2R,3S)-3-((methylsulfonyl)amino)-2-(((cis-4-phenylcyclohexyl)oxy)methyl)piperidine-1-carboxylate]
Plasma Concentration of Cmpd A, Mean [1]: 105.7 ng/mL | Plasma Concentration of Cmpd A, Median [1]: 109.5 ng/mL | Plasma Concentration of Cmpd A, Minimum [1]: 89.8 ng/mL | Plasma Concentration of Cmpd A, Q1 [1]: 90.60 ng/mL | Plasma Concentration of Cmpd A, Q3 [1]: 115.0 ng/mL | Plasma Concentration of Cmpd A, Maximum [2]: 101 ng/mL | Plasma Concentration of Cmpd A, Mean [2]: 87.53 ng/mL | Plasma Concentration of Cmpd A, Median [2]: 89.55 ng/mL | Plasma Concentration of Cmpd A, Minimum [2]: 69.8 ng/mL | Plasma Concentration of Cmpd A, Q1 [2]: 76.60 ng/mL | Plasma Concentration of Cmpd A, Q3 [2]: 98.70 ng/mL | Plasma Concentration of Cmpd A, Maximum [3]: 82.2 ng/mL | Plasma Concentration of Cmpd A, Mean [3]: 61.40 ng/mL | Plasma Concentration of Cmpd A, Median [3]: 59.80 ng/mL | Plasma Concentration of Cmpd A, Minimum [3]: 41.2 ng/mL | Plasma Concentration of Cmpd A, Q1 [3]: 53.10 ng/mL | Plasma Concentration of Cmpd A, Q3 [3]: 72.30 ng/mL | Plasma Concentration of Cmpd A, Maximum [4]: 52.5 ng/mL | Plasma Concentration of Cmpd A, Mean [4]: 44.02 ng/mL | Plasma Concentration of Cmpd A, Median [4]: 45.90 ng/mL | Plasma Concentration of Cmpd A, Minimum [4]: 30.3 ng/mL | Plasma Concentration of Cmpd A, Q1 [4]: 40.30 ng/mL | Plasma Concentration of Cmpd A, Q3 [4]: 49.20 ng/mL | Plasma Concentration of Cmpd A, Maximum [5]: 44.3 ng/mL | Plasma Concentration of Cmpd A, Mean [5]: 32.82 ng/mL | Plasma Concentration of Cmpd A, Median [5]: 30.10 ng/mL | Plasma Concentration of Cmpd A, Minimum [5]: 22.2 ng/mL | Plasma Concentration of Cmpd A, Q1 [5]: 28.20 ng/mL | Plasma Concentration of Cmpd A, Q3 [5]: 42.00 ng/mL | Plasma Concentration of Cmpd A, Maximum [6]: 20.2 ng/mL | Plasma Concentration of Cmpd A, Mean [6]: 15.28 ng/mL | Plasma Concentration of Cmpd A, Median [6]: 15.05 ng/mL | Plasma Concentration of Cmpd A, Minimum [6]: 11.7 ng/mL | Plasma Concentration of Cmpd A, Q1 [6]: 12.00 ng/mL | Plasma Concentration of Cmpd A, Q3 [6]: 17.70 ng/mL | Plasma Concentration of Cmpd A, Maximum [7]: 13.8 ng/mL | Plasma Concentration of Cmpd A, Mean [7]: 7.692 ng/mL | Plasma Concentration of Cmpd A, Median [7]: 5.985 ng/mL | Plasma Concentration of Cmpd A, Minimum [7]: 3.97 ng/mL | Plasma Concentration of Cmpd A, Q1 [7]: 4.910 ng/mL | Plasma Concentration of Cmpd A, Q3 [7]: 11.50 ng/mL | Plasma Concentration of Cmpd A, Maximum [8]: 5.82 ng/mL | Plasma Concentration of Cmpd A, Mean [8]: 3.298 ng/mL | Plasma Concentration of Cmpd A, Median [8]: 2.665 ng/mL | Plasma Concentration of Cmpd A, Minimum [8]: 1.85 ng/mL | Plasma Concentration of Cmpd A, Q1 [8]: 2.030 ng/mL | Plasma Concentration of Cmpd A, Q3 [8]: 4.760 ng/mL | Plasma concentration, Maximum [9]: 224 ng/mL | Plasma concentration, Mean [9]: 195.0 ng/mL | Plasma concentration, Median [9]: 205.0 ng/mL | Plasma concentration, Minimum [9]: 154 ng/mL | Plasma concentration, Q1 [9]: 159.0 ng/mL | Plasma concentration, Q3 [9]: 223.0 ng/mL | Plasma concentration, Maximum (180 mg, Predose): 0.00 ng/mL | Plasma concentration, Mean (180 mg, Predose): 0.000 ng/mL | Plasma concentration, Median (180 mg, Predose): 0.000 ng/mL | Plasma concentration, Minimum (180 mg, Predose): 0.00 ng/mL | Plasma concentration, Q1 (180 mg, Predose): 0.000 ng/mL | Plasma concentration, Q3 (180 mg, Predose): 0.000 ng/mL | Plasma Concentration of Cmpd A, Maximum [10]: 392 ng/mL | Plasma Concentration of Cmpd A, Median [10]: 329.5 ng/mL | Plasma Concentration of Cmpd A, Q3 [10]: 360.0 ng/mL | Plasma Concentration of Cmpd A, Maximum [11]: 321 ng/mL | Plasma Concentration of Cmpd A, Mean [11]: 256.3 ng/mL | Plasma Concentration of Cmpd A, Median [11]: 249.0 ng/mL | Plasma Concentration of Cmpd A, Minimum [11]: 200 ng/mL | Plasma Concentration of Cmpd A, Q1 [11]: 243.0 ng/mL | Plasma Concentration of Cmpd A, Q3 [11]: 276.0 ng/mL | Plasma Concentration of Cmpd A, Maximum [12]: 252 ng/mL | Plasma Concentration of Cmpd A, Mean [12]: 220.3 ng/mL | Plasma Concentration of Cmpd A, Median [12]: 222.5 ng/mL | Plasma Concentration of Cmpd A, Minimum [12]: 182 ng/mL | Plasma Concentration of Cmpd A, Q1 [12]: 215.0 ng/mL | Plasma Concentration of Cmpd A, Q3 [12]: 228.0 ng/mL | Plasma Concentration of Cmpd A, Maximum [13]: 212 ng/mL | Plasma Concentration of Cmpd A, Mean [13]: 193.7 ng/mL | Plasma Concentration of Cmpd A, Median [13]: 200.5 ng/mL | Plasma Concentration of Cmpd A, Minimum [13]: 148 ng/mL | Plasma Concentration of Cmpd A, Q1 [13]: 199.0 ng/mL | Plasma Concentration of Cmpd A, Q3 [13]: 202.0 ng/mL | Plasma Concentration of Cmpd A, Maximum [14]: 203 ng/mL | Plasma Concentration of Cmpd A, Mean [14]: 172.3 ng/mL | Plasma Concentration of Cmpd A, Median [14]: 174.5 ng/mL | Plasma Concentration of Cmpd A, Minimum [14]: 127 ng/mL | Plasma Concentration of Cmpd A, Q1 [14]: 168.0 ng/mL | Plasma Concentration of Cmpd A, Q3 [14]: 187.0 ng/mL | Plasma Concentration of Cmpd A, Maximum [15]: 159 ng/mL | Plasma Concentration of Cmpd A, Mean [15]: 144.7 ng/mL | Plasma Concentration of Cmpd A, Median [15]: 148.5 ng/mL | Plasma Concentration of Cmpd A, Minimum [15]: 113 ng/mL | Plasma Concentration of Cmpd A, Q1 [15]: 145.0 ng/mL | Plasma Concentration of Cmpd A, Q3 [15]: 154.0 ng/mL | Plasma Concentration of Cmpd A, Maximum [16]: 112 ng/mL | Plasma Concentration of Cmpd A, Mean [16]: 97.98 ng/mL | Plasma Concentration of Cmpd A, Median [16]: 100.5 ng/mL | Plasma Concentration of Cmpd A, Minimum [16]: 77.5 ng/mL | Plasma Concentration of Cmpd A, Q1 [16]: 94.40 ng/mL | Plasma Concentration of Cmpd A, Q3 [16]: 103.0 ng/mL | Plasma Concentration of Cmpd A, Mean [17]: 77.10 ng/mL | Plasma Concentration of Cmpd A, Minimum [17]: 64.7 ng/mL | Plasma Concentration of Cmpd A, Q1 [17]: 68.80 ng/mL | Plasma Concentration of Cmpd A, Mean [18]: 55.97 ng/mL | Plasma Concentration of Cmpd A, Minimum [18]: 41.9 ng/mL | Plasma Concentration of Cmpd A, Mean [19]: 29.47 ng/mL | Plasma Concentration of Cmpd A, Minimum [19]: 21.8 ng/mL | Plasma Concentration of Cmpd A, Mean [20]: 14.42 ng/mL | Plasma Concentration of Cmpd A, Minimum [20]: 7.04 ng/mL | Plasma Concentration of Cmpd A, Mean [21]: 6.740 ng/mL | Plasma Concentration of Cmpd A, Minimum [21]: 3.23 ng/mL | Plasma Concentration of Cmpd A, Maximum [22]: 0.00 ng/mL | Plasma Concentration of Cmpd A, Median [22]: 0.000 ng/mL | Plasma Concentration of Cmpd A, Q3 [22]: 0.000 ng/mL | Plasma concentration, Mean [23]: 328.2 ng/mL | Plasma concentration, Minimum [23]: 277 ng/mL | Plasma concentration, Q1 [23]: 281.0 ng/mL | Plasma concentration, Mean (240 mg, Predose): 0.000 ng/mL | Plasma concentration, Minimum (240 mg, Predose): 0.00 ng/mL | Plasma concentration, Q1 (240 mg, Predose): 0.000 ng/mL
